Experimental data reported in paper PMC3431376.
These are yes or no findings as the source states them, for the method shown. In cells and extracts the contact can be indirect. Some binding calls cover weakened binding; strength is not graded here.

By UniProt entry, the sequences of proteins in these tests, tags left out. Where a name states a change or a piece, a line headed by the entry shows the natural chain unless it says otherwise. Residues count along the entry.
UniProt Q60598: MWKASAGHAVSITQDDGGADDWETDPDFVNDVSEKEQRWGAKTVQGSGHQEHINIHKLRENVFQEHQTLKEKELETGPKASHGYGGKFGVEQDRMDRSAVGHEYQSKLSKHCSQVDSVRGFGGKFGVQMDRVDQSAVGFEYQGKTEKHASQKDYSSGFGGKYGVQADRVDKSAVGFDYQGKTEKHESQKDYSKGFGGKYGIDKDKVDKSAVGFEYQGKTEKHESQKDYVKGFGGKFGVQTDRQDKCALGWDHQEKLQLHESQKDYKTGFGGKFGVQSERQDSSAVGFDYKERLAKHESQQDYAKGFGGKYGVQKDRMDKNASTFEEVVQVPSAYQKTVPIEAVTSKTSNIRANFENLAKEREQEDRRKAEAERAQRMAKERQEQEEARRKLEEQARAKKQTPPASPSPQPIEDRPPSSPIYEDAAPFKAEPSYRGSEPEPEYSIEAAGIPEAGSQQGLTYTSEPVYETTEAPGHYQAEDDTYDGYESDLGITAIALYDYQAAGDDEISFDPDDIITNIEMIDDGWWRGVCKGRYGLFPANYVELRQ
FLAG-cortactin carboxyl terminal (CT) (amino acids 350-546): residues 350-546 of Q60598
UniProt Q14247: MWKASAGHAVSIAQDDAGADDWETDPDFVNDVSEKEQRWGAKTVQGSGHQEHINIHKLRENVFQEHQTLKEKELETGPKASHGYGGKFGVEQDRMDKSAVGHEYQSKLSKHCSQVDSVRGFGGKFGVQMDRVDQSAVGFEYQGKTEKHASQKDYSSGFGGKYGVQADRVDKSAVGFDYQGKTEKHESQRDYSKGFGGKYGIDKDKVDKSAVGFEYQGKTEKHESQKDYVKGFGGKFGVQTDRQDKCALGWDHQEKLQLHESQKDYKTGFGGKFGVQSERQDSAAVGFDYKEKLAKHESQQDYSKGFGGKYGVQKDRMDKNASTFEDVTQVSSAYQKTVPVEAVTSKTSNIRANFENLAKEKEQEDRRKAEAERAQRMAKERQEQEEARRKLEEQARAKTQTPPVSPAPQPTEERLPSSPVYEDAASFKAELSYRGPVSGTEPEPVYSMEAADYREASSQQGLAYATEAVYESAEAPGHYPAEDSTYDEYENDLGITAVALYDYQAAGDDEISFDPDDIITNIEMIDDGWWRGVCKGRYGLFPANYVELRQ
UniProt O54967: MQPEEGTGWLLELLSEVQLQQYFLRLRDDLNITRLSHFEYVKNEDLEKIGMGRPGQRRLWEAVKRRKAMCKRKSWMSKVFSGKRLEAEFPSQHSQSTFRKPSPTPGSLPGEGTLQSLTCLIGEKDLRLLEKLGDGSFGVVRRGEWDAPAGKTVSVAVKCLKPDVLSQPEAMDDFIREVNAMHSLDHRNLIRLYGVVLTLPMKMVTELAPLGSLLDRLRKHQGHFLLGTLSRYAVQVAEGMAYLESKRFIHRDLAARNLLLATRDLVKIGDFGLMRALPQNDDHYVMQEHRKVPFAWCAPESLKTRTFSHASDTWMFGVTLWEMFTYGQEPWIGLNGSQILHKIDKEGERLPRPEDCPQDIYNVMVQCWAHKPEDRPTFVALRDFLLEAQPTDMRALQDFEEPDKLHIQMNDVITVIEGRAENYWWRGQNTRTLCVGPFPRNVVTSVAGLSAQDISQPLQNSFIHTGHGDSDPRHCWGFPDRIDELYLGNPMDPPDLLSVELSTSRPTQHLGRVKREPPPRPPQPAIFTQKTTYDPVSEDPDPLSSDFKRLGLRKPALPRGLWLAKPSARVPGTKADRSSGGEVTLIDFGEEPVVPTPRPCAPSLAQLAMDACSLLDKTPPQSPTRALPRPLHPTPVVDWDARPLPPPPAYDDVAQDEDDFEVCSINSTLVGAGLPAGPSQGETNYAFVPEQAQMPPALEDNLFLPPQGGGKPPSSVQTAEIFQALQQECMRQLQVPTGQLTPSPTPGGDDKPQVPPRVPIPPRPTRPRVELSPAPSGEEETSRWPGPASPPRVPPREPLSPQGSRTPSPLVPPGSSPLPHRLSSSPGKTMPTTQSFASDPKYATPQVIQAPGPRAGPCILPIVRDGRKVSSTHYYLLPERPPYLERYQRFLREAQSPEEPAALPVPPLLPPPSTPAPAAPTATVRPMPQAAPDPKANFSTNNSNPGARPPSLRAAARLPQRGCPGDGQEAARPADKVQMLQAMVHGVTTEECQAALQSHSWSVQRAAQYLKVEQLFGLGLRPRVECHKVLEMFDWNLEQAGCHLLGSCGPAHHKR

Tests used:
[1] = target: FLAG-cortactin full length (FL) (murine) (UniProt Q60598); test: co-IP; anti-FLAG M2 affinity gel on clarified lysates of 293T cells coexpressing Myc-ACK1 and FLAG-cortactin constructs; NP40 buffer, 4°C; blots with anti-ACK1 and anti-Myc
[2] = target: FLAG-cortactin carboxyl terminal (CT) (amino acids 350-546) (murine) (UniProt Q60598); test: as above
[3] = target: FLAG-cortactin W525K (SH3-binding deficient) (murine) (UniProt Q60598); test: as above
[4] = target: endogenous cortactin (human (endogenous in 1483 and 293T)) (UniProt Q14247); test: co-IP; 293T cells transfected with Myc-ACK1; Protein A/G beads bound to anti-cortactin antibody against beads alone; blot for ACK1 and cortactin
[5] = target: endogenous cortactin (human (endogenous in 1483 and 293T)) (UniProt Q14247); test: co-IP; endogenous cortactin immunoprecipitated with anti-cortactin antibody and Protein A/G beads from lysates of 1483 cells transfected with Myc-ACK1; NP40 buffer (20 mM HEPES-KOH pH 7.8, 50 mM KCl, 1 mM EDTA, 1% NP40), 4°C; blot with anti-Myc

- binding [1]: binds
- binding [2]: binds
- binding [3]: no binding
- binding [4]: binds
- binding [5]: binds
Substance: Myc-tagged ACK1 (murine activated Cdc42-associated kinase 1) (from UniProt O54967 1-1055) (enzyme)
